# Results as given in the supplement of paper PMC10037445.
# ± gives the standard deviation of the averaged measurements. Over roughly 2,900 compounds, “IRF Lucia reporter activity, fold change vs agonist alone” has its median near 0.9; the highest 2% begin near 2.8. This is one part of the list.
# What was measured:
# [1] = test system: RAW-Dual; assay: IRF Lucia reporter activity, fold change vs agonist alone; cytotoxicity flag (confluency mask): not cytotoxic; higher = enhanced IRF activity
# Outline: (§1)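 RAW-Dual macrophages (50,000 cells/well in DMEM, 384-well plates) received 50 nL of library stock by pin tool, then a PRR agonist 1 h later, and were kept at 37 °C, 5% CO2. After 20 hours, supernatant was read for IRF by QuantiLuc luminescence and for NF-κB by QuantiBlue absorbance at 620 nm. Reporter activity is fold change over agonist-alone wells. Cytotoxic wells had IncuCyte confluency below 70% of agonist controls in both mask sets.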
# [2] = test system: RAW-Dual; assay: IRF Lucia reporter activity, fold change vs agonist alone; higher = enhanced IRF activity; conditions: agonist: MPLA (TLR4) […]
# Outline: as §1
# [3] = test system: RAW-Dual; assay: IRF Lucia reporter activity, fold change vs agonist alone; cytotoxicity flag (confluency mask): cytotoxic (confluency <70% of control); higher = enhanced IRF activity
# Outline: as §1
# [4] = agonist: 3'3'-cGAMP (STING) 10 ug/mL
# [5] = library stock concentration (final ~1000-fold dilution): 10 mM, cytotoxicity flag (confluency mask): not cytotoxic
smiles,measurement,setting,value
COc1cc2c(cc1OC)CC(=O)N(CCCN(C)CC1Cc3cc(OC)c(OC)cc31)CC2.Cl (configuration not stated) (library stock concentration (final ~1000-fold dilution): 10 mM),IRF Lucia reporter activity,[1]; [4],0.904
same,IRF Lucia reporter activity,[1]; agonist: LPS (TLR4) 0.1 ug/mL,1.01
COc1cc2c(cc1OC)CC(=O)N(CCCN(C)CC1Cc3cc(OC)c(OC)cc31)CC2.Cl (configuration not stated),IRF Lucia reporter activity,[2]; [5],0.93
CC(C)Oc1ccc(C(=O)NC(CNC(=O)CN(C)C)Cc2ccc(-c3cn4cccc(C(C)O)c4n3)cc2)cc1Cl (configuration not stated),IRF Lucia reporter activity,[2]; [5],1.61
CC(C)Oc1ccc(C(=O)NC(CNC(=O)CN(C)C)Cc2ccc(-c3cn4cccc(C(C)O)c4n3)cc2)cc1Cl (configuration not stated) (library stock concentration (final ~1000-fold dilution): 10 mM),IRF Lucia reporter activity,[1]; [4],0.535
same,IRF Lucia reporter activity,[1]; agonist: LPS (TLR4) 0.1 ug/mL,1.24
N=C(CCl)NCCCC(NC(=O)c1ccccc1)C(N)=O.O=C(O)C(F)(F)F (configuration not stated) (library stock concentration (final ~1000-fold dilution): 10 mM),IRF Lucia reporter activity,[1]; [4],0.913
same,IRF Lucia reporter activity,[1]; agonist: LPS (TLR4) 0.1 ug/mL,0.53
CCCN1CCCCC1C(=O)Nc1c(C)cccc1C (configuration not stated),IRF Lucia reporter activity,[2]; [5],1.07
CCCN1CCCCC1C(=O)Nc1c(C)cccc1C (configuration not stated) (library stock concentration (final ~1000-fold dilution): 10 mM),IRF Lucia reporter activity,[1]; [4],1.01
same,IRF Lucia reporter activity,[1]; agonist: LPS (TLR4) 0.1 ug/mL,1.26
Cc1cn(-c2cc(NC(=O)c3ccc(C)c(Nc4nccc(-c5cnccn5)n4)c3)cc(C(F)(F)F)c2)cn1 (library stock concentration (final ~1000-fold dilution): 10 mM),IRF Lucia reporter activity,[1]; [4],1.02
same,IRF Lucia reporter activity,[1]; agonist: LPS (TLR4) 0.1 ug/mL,0.993
Cc1c(S(=O)(=O)O)oc2c1C(=O)C(=O)c1c-2ccc2c1CCCC2(C)C,IRF Lucia reporter activity,[2]; [5],1.04
Cc1c(S(=O)(=O)O)oc2c1C(=O)C(=O)c1c-2ccc2c1CCCC2(C)C (library stock concentration (final ~1000-fold dilution): 10 mM),IRF Lucia reporter activity,[1]; [4],0.96
same,IRF Lucia reporter activity,[1]; agonist: LPS (TLR4) 0.1 ug/mL,1.14
Cl.NCCCCC(N)C(=O)O (configuration not stated),IRF Lucia reporter activity,"[2]; library stock concentration (final ~1000-fold dilution): 10 mM water, cytotoxicity flag (confluency mask): not cytotoxic",1.4
Cl.NCCCCC(N)C(=O)O (configuration not stated) (library stock concentration (final ~1000-fold dilution): 10 mM water),IRF Lucia reporter activity,[1]; [4],1.41
same,IRF Lucia reporter activity,[1]; agonist: LPS (TLR4) 0.1 ug/mL,0.888
CN(C)CCCSC(=N)N.Cl.Cl (library stock concentration (final ~1000-fold dilution): 10 mM),IRF Lucia reporter activity,[1]; [4],1.13
same,IRF Lucia reporter activity,[1]; agonist: LPS (TLR4) 0.1 ug/mL,0.819
CN(C)CCCSC(=N)N.Cl.Cl,IRF Lucia reporter activity,[2]; [5],1.12
CN1c2ccccc2C(=O)N2CCc3c([nH]c4ccccc34)C21 (configuration not stated) (library stock concentration (final ~1000-fold dilution): 10 mM),IRF Lucia reporter activity,[1]; [4],0.723
same,IRF Lucia reporter activity,[1]; agonist: LPS (TLR4) 0.1 ug/mL,0.813
CN1c2ccccc2C(=O)N2CCc3c([nH]c4ccccc34)C21 (configuration not stated),IRF Lucia reporter activity,[2]; [5],0.845
Fc1ccc(Nc2nc(Nc3ccc(-c4nc5ccccc5[nH]4)cc3)nc(N3CCOCC3)n2)cc1 (library stock concentration (final ~1000-fold dilution): 10 mM),IRF Lucia reporter activity,[3]; [4],0.0258
same,IRF Lucia reporter activity,[3]; agonist: LPS (TLR4) 0.1 ug/mL,0.0727
CC#CCn1c(N2CCCC(N)C2)nc2c1c(=O)n(Cc1nc(C)c3ccccc3n1)c(=O)n2C (configuration not stated) (library stock concentration (final ~1000-fold dilution): 10 mM),IRF Lucia reporter activity,[1]; [4],1.06
same,IRF Lucia reporter activity,[1]; agonist: LPS (TLR4) 0.1 ug/mL,1.06
CC#CCn1c(N2CCCC(N)C2)nc2c1c(=O)n(Cc1nc(C)c3ccccc3n1)c(=O)n2C (configuration not stated),IRF Lucia reporter activity,[2]; [5],0.994
COc1cc(/C=C/C(=O)O)cc(OC)c1O (library stock concentration (final ~1000-fold dilution): 10 mM),IRF Lucia reporter activity,[1]; [4],0.912
same,IRF Lucia reporter activity,[1]; agonist: LPS (TLR4) 0.1 ug/mL,1.1
O=C(O)/C(Cc1ccccc1[N+](=O)[O-])=N/Nc1nc(-c2ccc(Cl)c(Cl)c2)cs1,IRF Lucia reporter activity,[2]; [5],0.95
O=C(O)/C(Cc1ccccc1[N+](=O)[O-])=N/Nc1nc(-c2ccc(Cl)c(Cl)c2)cs1 (library stock concentration (final ~1000-fold dilution): 10 mM),IRF Lucia reporter activity,[1]; [4],0.74
same,IRF Lucia reporter activity,[1]; agonist: LPS (TLR4) 0.1 ug/mL,0.785
Nc1ccc(C(=O)O)c(O)c1,IRF Lucia reporter activity,[2]; [5],1.119 ± 0.011
Nc1ccc(C(=O)O)c(O)c1 (library stock concentration (final ~1000-fold dilution): 10 mM),IRF Lucia reporter activity,[1]; [4],1.05 ± 0.015
same,IRF Lucia reporter activity,[1]; agonist: LPS (TLR4) 0.1 ug/mL,1.16 ± 0.12
CC(C)n1c(=O)n(C)c2cnc3cc(F)c(-c4ccc(OCCCN5CCCCC5)nc4)cc3c21 (library stock concentration (final ~1000-fold dilution): 10 mM),IRF Lucia reporter activity,[1]; [4],0.432
same,IRF Lucia reporter activity,[1]; agonist: LPS (TLR4) 0.1 ug/mL,0.587
CCOc1nc2cccc(C(=O)O)c2n1Cc1ccc(-c2ccccc2-c2nn[nH]n2)cc1 (library stock concentration (final ~1000-fold dilution): 10 mM),IRF Lucia reporter activity,[1]; [4],1.09
same,IRF Lucia reporter activity,[1]; agonist: LPS (TLR4) 0.1 ug/mL,0.934
CCOc1nc2cccc(C(=O)O)c2n1Cc1ccc(-c2ccccc2-c2nn[nH]n2)cc1,IRF Lucia reporter activity,[2]; [5],1
COc1cc(CCc2cc(NC(=O)c3ccc(N4CC(C)NC(C)C4)cc3)n[nH]2)cc(OC)c1 (configuration not stated),IRF Lucia reporter activity,"[2]; library stock concentration (final ~1000-fold dilution): 10 mM, cytotoxicity flag (confluency mask): cytotoxic (confluency <70% of control)",0.69
COc1cc(CCc2cc(NC(=O)c3ccc(N4CC(C)NC(C)C4)cc3)n[nH]2)cc(OC)c1 (configuration not stated) (library stock concentration (final ~1000-fold dilution): 10 mM),IRF Lucia reporter activity,[3]; [4],0.108
same,IRF Lucia reporter activity,[3]; agonist: LPS (TLR4) 0.1 ug/mL,0.319
CCCc1cc2c(N3CCN(C4=NCC(C)(C)S4)CC3)ncnc2s1 (library stock concentration (final ~1000-fold dilution): 10 mM),IRF Lucia reporter activity,[1]; [4],1.18
same,IRF Lucia reporter activity,[1]; agonist: LPS (TLR4) 0.1 ug/mL,1.04
CNCc1ccc(C)c(NC(=O)c2ccc(Nc3nc(-c4ccccc4)c4ccccc4n3)cc2)c1,IRF Lucia reporter activity,[2]; [5],1.01
CNCc1ccc(C)c(NC(=O)c2ccc(Nc3nc(-c4ccccc4)c4ccccc4n3)cc2)c1 (library stock concentration (final ~1000-fold dilution): 10 mM),IRF Lucia reporter activity,[1]; [4],0.995
same,IRF Lucia reporter activity,[1]; agonist: LPS (TLR4) 0.1 ug/mL,1.04
COc1cc2nc(N3CCN(C(=O)C4CCCO4)CC3)nc(N)c2cc1OC.Cl.O.O (configuration not stated) (library stock concentration (final ~1000-fold dilution): 10 mM),IRF Lucia reporter activity,[1]; [4],1.11
same,IRF Lucia reporter activity,[1]; agonist: LPS (TLR4) 0.1 ug/mL,0.802
COc1cc2nc(N3CCN(C(=O)C4CCCO4)CC3)nc(N)c2cc1OC.Cl.O.O (configuration not stated),IRF Lucia reporter activity,[2]; [5],0.867
c1ccc(-c2nn3c(c2-c2ccnc4cc(OCCN5CCOCC5)ccc24)CCC3)nc1,IRF Lucia reporter activity,"[2]; library stock concentration (final ~1000-fold dilution): 2 mM, cytotoxicity flag (confluency mask): not cytotoxic",1.57
c1ccc(-c2nn3c(c2-c2ccnc4cc(OCCN5CCOCC5)ccc24)CCC3)nc1 (library stock concentration (final ~1000-fold dilution): 2 mM),IRF Lucia reporter activity,[1]; [4],0.779
same,IRF Lucia reporter activity,[1]; agonist: LPS (TLR4) 0.1 ug/mL,0.781
